This is one part of the list. Single values are uncertain, as repeats are few or missing.

This experiment has as its system Candida albicans DPL-15. Kind of experiment: growth (OD600) after compound treatment (apparently relative to screen median) (relative growth (fraction; screen median 1.02)); DPL-15 is a caspofungin-resistant clinical isolate; higher = more fungal growth (less antifungal activity). The note with it: 25 µM; RPMI 1640; 48 h; 30 °C.
With `COC(=O)[C@@]12Oc3ccc(-c4ccccc4SC)c(O)c3C(=O)C1=C(N)C[C@H](C)[C@H]2O`, the growth turned out to be 1.06.

`COc1ccc(C2NC(=O)N3CCC=CC3=C2C(C)=O)c(F)c1` (stereo not drawn): the growth was 0.972.

On to `COC[C@@H](O)[C@H]1OCc2c(c3cc(C(F)(F)F)ccc3n2S(=O)(=O)c2ccc(C)cc2)[C@@H]1/C=C/c1ccccc1`, for which the growth stood at 0.875.

With `COC(=O)C1=C(C(=O)OC)[C@@H]2Nc3ccccc3[C@@]23C[C@@H](C(=O)OC)NC3=N1`, the growth was 1.14.

Regarding `C=CCN1C(=O)c2[nH]nc(C)c2C1c1ccc(Br)cc1` (stereo not drawn), the growth is 0.967.

For `COc1ccccc1Cn1nc(C)c2c1C(=O)NC2c1ccc(C)cc1` (stereo not drawn), the growth came out at 0.872.

As to `OC(CN1CCCc2nc(-c3ccc(Br)cc3)ccc21)CN1CCCc2nc(-c3ccc(Br)cc3)ccc21`, the growth worked out at 0.935.

In the case of `C#CCC(C)(C)CNC(=O)CC(O)CNC(=O)c1cccc(/C=N/NS(=O)(=O)c2ccc(C)cc2)c1` (stereo not drawn), the growth came out at 1.07.

For the molecule `COC(=O)C1=C(CCl)NC(=O)NC1c1ccccc1` (stereo not drawn), the growth was 1.15.

As to `COC(=O)c1cc(O)c(C(C)(C)C)c(O)c1`, the growth worked out at 0.983.

Regarding `CC(C)Cn1nccc1Nc1cc(O)cc(O)c1C(=O)N1Cc2ccccc2C1`, the growth came to 0.99.

On to `COCOc1c(C)c(O)c(C(=O)OC)c(O)c1C`, for which the growth is 1.02.

Regarding `COC(=O)[C@@H]1[C@H](C(=O)OC)[C@@H](c2ccc(OC)cc2)[C@H]1c1ccc(OC)cc1`, the growth turned out to be 0.892.

Consider `COc1cccc2c(=O)c3cccc(C(=O)NCCCN4CCCCC4C)c3[nH]c12` (stereo not drawn), for which the growth worked out at 1.11.

As to `CCNC1=NC(c2ccccc2C(F)(F)F)C(C(=O)OC)=C(C)N1C` (stereo not drawn), the growth worked out at 1.

As for `Cc1cc(O)c2c3c4c(cc(O)c13)O[C@H]1OCCC[C@H]1[C@H]4OC2=O`, the growth was found to be 0.979.

Regarding `O=S(=O)(Nc1ccc(C(F)(F)F)cc1)N1CCOCC1`, the growth came to 1.26.

In the case of `C=CC[C@@H](CC1(CC=C)C(=O)C(C(=O)c2ccccc2)=C(O)C=C1OC)C(=C)C` (stereo partly drawn), the growth came to 1.07.

In the case of `COc1ccc(N2C(=O)c3[nH]nc(CC(C)C)c3C2C2CCCC2)cc1` (stereo not drawn), the growth is 1.

`COc1ccc(C(=O)C(OCc2ccccc2)C(=O)c2c(O)cc(OC)cc2OC)cc1` (stereo not drawn): the growth was found to be 1.12.

Regarding `COc1cc2c3c4c(c(O)cc(C)c14)C(=O)O[C@@H]3[C@@H]1CCO[C@]1(c1ccc([N+](=O)[O-])cc1)O2`, the growth worked out at 1.04.

On to `CC(C)Cc1n[nH]c2c1C(c1ccc(F)cc1)N(C1CCOCC1)C2=O` (stereo not drawn), for which the growth was found to be 0.868.

`c1ccc(CCCc2cccnc2CCCc2ccccc2)cc1`: the growth amounted to 1.05.

Take `C=CCN1C(=O)c2[nH]nc(C)c2C1c1ccc(C)cc1` (stereo not drawn): the growth is 0.971.

On to `CS(=O)(=O)Oc1c(CC23CCCCC2=Nc2cc(F)cc(F)c23)occc1=O` (stereo not drawn), for which the growth amounted to 1.04.

For `Clc1cccc(CCCc2ccccc2)n1`, the growth worked out at 1.18.

For `COCCNC1=NC(c2ccccc2)C(C(=O)OC)=C(C)N1Cc1ccc(C(F)(F)F)cc1` (stereo not drawn), the growth was determined as 0.958.

For the molecule `COC(=O)C1=C(C(=O)OC)[C@@H](c2ccc(OC)cc2)O[C@@H]1c1ccc(Cl)cc1`, the growth was 1.37.

On to `COCOc1ccccc1C(=O)/C=C/c1ccccc1`, for which the growth came out at 1.09.

As for `CC(C)CC1=NCCNC2=C1C(c1ccccc1)N(c1ccccc1)C2=O` (stereo not drawn), the growth was found to be 0.879.

Regarding `COc1ccc(Cn2nc(C)cc2Nc2cc(O)cc(O)c2C(=O)N2Cc3ccc(N4CCN(C)CC4)cc3C2)cc1`, the growth was found to be 1.07.

For the molecule `COc1ccc(N2C(=O)C3=C(C(C)=NCC(C)(C)N3)C2c2ccc(Br)cc2)cc1` (stereo not drawn), the growth came to 1.03.

Regarding `COC(=O)C1=C(C)N(C)C(NCC(C)C)=NC1c1ccc(Cl)cc1` (stereo not drawn), the growth worked out at 1.06.

In the case of `C=CCN1C(=O)C2=C(C(c3ccccc3)=NCC(C)(C)N2)C1c1ccc(F)cc1` (stereo not drawn), the growth was 1.07.

On to `COc1ccc(Cn2nc(C)cc2Nc2cc(O)cc(O)c2C(=O)N2Cc3cn[nH]c3C2)cc1`, for which the growth turned out to be 1.19.

For `CC1=NCCN(C)C2=C1C(c1cccc(C(F)(F)F)c1)NC2=O` (stereo not drawn), the growth is 0.98.

On to `CC(C)N1CCC[C@@H](CN(C)Cc2ccccc2)C1`, for which the growth was found to be 1.05.

Turning to `COc1cc(OC)c2c(c1)O[C@@]1(c3ccc(Br)cc3)[C@H](c3ccccc3)[C@@H](C(=O)N(C)OC)[C@@H](O)[C@@]21O`, the growth amounted to 0.826.

`C=CCc1cc(OC)c(OC)cc1C(c1ccccc1)c1ccccc1O` (stereo not drawn): the growth worked out at 1.12.

Turning to `CC(C)n1nccc1Nc1cc(O)cc(O)c1C(=O)N1Cc2ccccc2C1`, the growth worked out at 1.09.

For `COc1ccc([C@@]23Oc4cc(OC)cc(OC)c4[C@]2(O)[C@H](O)[C@H](C(=O)c2oc4ccccc4c2C)[C@H]3c2ccccc2)cc1`, the growth was 1.03.

As for `COCCN1C(=O)N[C@@H](c2cccc(F)c2)C(C(C)=O)=C1C`, the growth stood at 0.967.

For `C#CCOC[C@@H](NC(=O)CC1(CNC(=O)OCC2c3ccccc3-c3ccccc32)CCCCC1)c1ccccc1`, the growth worked out at 1.2.

Regarding `COC(=O)N[C@@H](c1cccc(C)c1)C(C(C)=O)C(=O)OC` (stereo partly drawn), the growth is 1.06.

Consider `COc1ccc(Cn2nc(-c3ccccc3)cc2Nc2cc(O)cc(O)c2C(=O)N(C)Cc2cccnc2)cc1`, for which the growth came to 1.02.

`CC(C)Cc1n[nH]c2c1C(c1cccc(C(F)(F)F)c1)N(c1ccc(Br)cc1)C2=O` (stereo not drawn): the growth was found to be 0.985.

`CCOC(=S)SCCCOS(=O)(=O)NC(C)(C)C`: the growth amounted to 1.05.

On to `C=C1CC[C@H]2[C@@H](C(=O)C(C)C)C3=C(O[C@]2(C)CC[C@@H]2[C@@H]1CC2(C)C)C(C)(C)C(=O)C(C)(C)C3=O`, for which the growth worked out at 0.994.

Take `COc1c(F)cc(C2NC(=O)N3CCC=CC3=C2C(C)=O)c(C)c1Cl` (stereo not drawn): the growth came to 0.885.

On to `Cc1nn(Cc2ccccc2)c2c1C(c1ccccc1)NC2=O` (stereo not drawn), for which the growth came out at 1.

As to `CC(C)(C)n1nc(-c2ccccc2)cc1N`, the growth is 1.16.

`COc1ccc(C(=O)Nc2ccc(CCN3CCc4cc(OC)c(OC)cc4C3)cc2)c(NC(=O)c2cnc3ccccc3c2)c1`: the growth was found to be 1.71.

For the molecule `COc1cc2c(c(OC)c1OC)CC(C)=C(C)CC2NC(=O)C(F)(F)F` (stereo not drawn), the growth worked out at 1.15.

For the origin of these results see the supplement of paper PMC10986608.
